Laboratory results as given in the RNAGym collection of RNA variant scans (doi:10.7554/elife.90254).
Read counts are not given, so values of variants with three or more changes are uncertain.

B1: LINE1-mini (parent)
chain: GGCAGAGCUCAACACAGCGUGGCAAAGUGGCUGUGGCUAGACUGCC

Variants of: B1
Experiment: self-cleavage, relative activity (ratio to wild type); higher = more cleavage; in vitro, sequencing; the parent is a self-cleaving ribozyme

Row | Variant | self-cleavage
1 | GACAGAUCUCAAAUCAGCGUUGCAAAGUGGCUGUGGCUAGUCUUCC | 0.31
2 | GACAGAGCUCAACACAACGUGGCAAAGUGGCUGAGGCUAGACUGCC | 0.04
3 | GACAGAGCUCAACACAGCUUGGCAAAGUGGCUGUGGCUAGACUUCC | 0.83
4 | GACAGAGCUCAACACAGCCUGGCAAAGUCGCUGUGGCUAGAUUGCC | 0.06
5 | GACAGAGCUCAACACAGCAUGGCUAAGUGGCUGUGGCUAGACUGCC | 2.77
6 | GACAGAGCACAACUCAGCGUGACAAAGUGGCUGUGGCGAGACUGCC | 0.46
7 | GACAGAGCUCAACACAGCGUGGCAAAGUGUCUGUGGCUAUACUUCG | 0.08
8 | GACAGAGCUCAACACAUCGUCGCACAGUGGCUGUGGCUAGACUGAC | 0.23
9 | GACAGAGCUCAACACAGCUUGGCAAAUUUGCUCUGGCUAGACUGCC | 0.04
10 | GACAGAACUCAACACAGCGUGGCAAAGUGGCUGUGGCUAGUCUGCC | 0.26
11 | GACAGAGCUCAACACAGCGUGGCAAAGUGGCUCUGGCUAGACUGUC | 0.02
12 | GACAGACCUCAACAUAGCGUGGCAAAGUGGCUGUGGCUAGACUGAC | 0.4
13 | GACAGAGCUCAACACAGCGUGGCAAAGUCGCUGUGGCUAGUCUGCC | 0.66
14 | GACAGAGCUCAACACAGCGUGGCAAAGUGUCUUUGGAUAGAAUGCC | 0.16
15 | GACAGACCUCAACACAGCGCGGCAAAGUGGCUGUGGCUACACUGCC | 0.02
16 | GACAGAGCUCAACACACCGUGGCAAAGUGUCUGUUGCUAUACUGCC | 0.07
17 | GACAGAGCUCAACACAGCGUUGCAAAGUGGCUGUGUCGAGACUGCC | 0.06
18 | GACAGAGCUCAACACAGCGUGGCAAAGUGGCUGUGGCUAAGCUGAC | 0.04
19 | GACAGAGCUCAACACAGCGUGUCAAAGAGGCUGUGGCUAGACUGCC | 0.26

Row | Variant | self-cleavage
20 | GACAGACCUCAACCCAGCGUGGCAAGGUGGCUGUGGCUAGACUGCC | 0.58
21 | GACAGAUCUCAACACAGAGAGGCAAAGUGGCUGUGGCUAGACUGCC | 0.05
22 | GACAGAGCUCAACACAGCGUGGCAAAGUGACUGUUGUUAGACAGCC | 0.04
23 | GACAGAGCUCAACACAUCGUGGCAAAGGGGCUGUGGCUAGACUGCC | 0.15
24 | GACAGAGCUCAACACACCGUGGCAAAGUGGCUUUGGGUAGACUGCC | 0.08
25 | GACAGAGCUCAACACAGCGUGGCAAAUUGGCUGUGGCUAGAAUGCA | 0.06
26 | GACAGAGCUCAACACAGCAUGGCAAAGUGGCUGUGGAUAGACUUCC | 0.08
27 | GACAGAGCUCAACACAGCGUGACAAAGUGGCUGUCGCUAGACUGCC | 0.14
28 | GACAGAGCUCAACACAGCGUAGCAAAGUGGCUGUGGCUAAACUGCC | 0.07
29 | GACAGAGCUCAACACAGCGUUGCAACGUGCCUGUGGCUAGACUGCC | 0.75
30 | GACAGAGCUCAACACAGCGUGGCAAAGUGGCUAUGGCAAGACUGCC | 0.24
31 | GACAGAGCUCAACACACUGUGGCAAAGUGGCUGUUGCUAGACUGCC | 0.08
32 | GACAGAGCUCAACACAGCGUGGCAAACUGGCUUAGGCUAGACUGCC | 0.05
33 | GACAGAGCUCAACACAGCGUAGCCAACUGUCUGUGGCUAGACUGCC | 0.39
34 | GACAGAGCUCAACACAGCGUUGCAAGGUGGCUGUGGCUAGGCUGCC | 0.13
35 | GACAGAGCUCAACACAGCGUGGCAAACUGGCUGUGGCUAGACUGGC | 1.08
36 | GACAGAGCUCAACACAGCGUGGCAAAGUGGCUGUGGCUAAACUGUC | 0.12
37 | GACAGAUCUCAACACAGCGUGGCAAAGUGGUUGCGCCUAGACUGCC | 0.05
38 | GACAGAACUCAACACAGAGUGGCAAAGUGGCUGUGGCUAGACUGCC | 0.1

Row | Variant | self-cleavage
39 | GACAGAGCUCAACACAGCGUGGCAAAGUGGCUGUGUCUAGACUCCC | 0.22
40 | GACAGACCUCAACACGGCGUGGCAAAGUGGCUGGGGCUACACUGCC | 0.21
41 | GACAGAGCUCAACACAGCGUGGCAAAGUGGCUCUGGCUAGACUGCU | 0.04
42 | GACAGAGCUCAACACACCGUGGCAAAGUGGCUGUGGCUAGAAUGCC | 0.19
43 | GACAGAGCUCAACACAGCGUGGCAAACUGGCUGGGGCUAGACUGCC | 0.09
44 | GACAGAGCUCAACACAGCGUGGCAAAGUGGCUACGGCUAGACUGCC | 0.19
45 | GACAGAACUCAACACAGCUUGGCAAAGUGGCUGUGGUUAGAAUGCC | 0.21
46 | GACAGACCUCAGCGCAGCCUGGCAAAGUGGCUGUGGCUAGAAUGCC | 0.08
47 | GACAGAGCUCAACACAGCCUGGCAAAGUGGUAGUGGCUAGACUGCC | 0.1
48 | GACAGAGCUCAACACAGCGUGGCAAAGUAGCGGUGGCUAGACUGCC | 0.15
49 | GACAGACCUCUACACAGCGUGGCAAAGUGGCUGUGGCUAGACUGCC | 0.01
50 | GACAGAGCUCAACACAGCAUGCCAAAGUGGCUGUGGCUAGACUGCC | 0.69
51 | GACAGAGCUCAACACAGCGUGACAAAGUGGCUGAGGCUAGACUGCC | 0.28
52 | GACAGAGCUCAACACAGCAUGGCCAAGUGGCUGUGGUUAGACUGCC | 0.27
53 | GACAGAGCUCAACACAGCGUUGCAAAGUAGCUGUGGCUAGACUGCA | 0.25
54 | GACAGACCUCAACACAGAGUGGCCAAGUGGAUGUGGCUAGACUCCC | 0.05
55 | GACAGAGCUCAACACAACGUGGCAAAGUGGCUGUGGAUAAACUGCC | 0.02
56 | GACAGACCUCUACACAGCGUGGCAAAGUCGGUGUGGCUAGACUGCC | 0.04
